Measured values: the RNAGym collection of RNA variant scans (doi:10.1093/nar/gkz1192)
The source gives no read counts; variants with many changes may rest on few reads.

B1: CPEB3 Ribozyme (parent)
chain: UAACAGGGGGCCACAGCAGAAGCGUUCACGUCGCAGCCCCUGUCAGAUUCUGGUGAAUCUGCGAAUUCUGCUGUAUAUCUC

Variants of: B1
Test: self-cleavage, relative activity (ratio to wild type); higher = more cleavage; in vitro, sequencing
How it was run: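 Relative activity compares each variant's cleaved/total read fraction with that of the unmutated ribozyme. To get these fractions, barcoded CPEB3 ribozyme libraries from rounds of error-prone PCR were transcribed with T7 RNA polymerase for 5 hours at 37°C and then given 15 min of DNase I treatment before EDTA was added. The RNAs were reverse transcribed with template switching and sequenced on Illumina, and DNA sequencing linked barcodes to variants. A minimum of 5 reads applied, and three batches were averaged.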

Variant | self-cleavage
U51A U69C U74A | 0.52
U51A U72C U80C | 1.32
U51A U72G U76C | 1.06
U51A U74A U80A | 1.27
U51A U74C A75G | 1.38
U51A U78C U80G | 1.2
U51C A56G A65C | 0.2
U51C A56G A65U U72C | 0.47
U51C A56G G70A U80C | 0.66
U51C A56G U58C | 0.44
U51C A56G U76A | 0.83
U51C A56G U76C | 1.03
U51C A56U U58A A64U | 0.15
U51C A56U U58C | 0.22
U51C A56U U78C | 0.45
U51C A57G A65U | 0.25
U51C A57G U78A | 1.05
U51C A57G U78A U80C | 0.93
U51C A64G A75U | 0.95
U51C A64G G73A | 0.86
U51C A64G U66C U72C | 0.41
U51C A64U A77G | 0.38
U51C A64U G70C | 0.09
U51C A64U U72C | 0.57

Variant | self-cleavage
U51C A64U U74A | 0.39
U51C A65G U69A U76C | 0.43
U51C A65G U69C A77G | 0.55
U51C A65U A77U | 0.25
U51C A65U U66C | 0.21
U51C A75G U76A | 0.99
U51C A77G U80C | 1.02
U51C C59A U72C | 0.22
U51C G52A G55C G63A G70C | 0.3
U51C G53A A56G U69C U78C | 0.85
U51C G53A A75G | 0.95
U51C G55C G70C | 0.24
U51C G55C U58C | 0.25
U51C G61A U66C | 0.44
U51C G63U A64U | 0.35
U51C G63U U67C U72C | 0.45
U51C G73C U78A | 1.26
U51C U54A A64U C68U | 0.35
U51C U54A U58C U74C | 0.32
U51C U54C A64U G73A | 0.86
U51C U54C C81U | 1.17
U51C U54C U76A | 1.15
U51C U54G A65G | 0.15
U51C U58A U72C | 0.24

Variant | self-cleavage
U51C U58C A64G U78C | 0.12
U51C U58C U74C U80C | 0.72
U51C U58C U80A | 0.36
U51C U58G A64G | 0.19
U51C U60C A64G U69C A77G | 0.24
U51C U60G U67C A77G | 0.14
U51C U60G U69C | 0.16
U51C U66A U67A U80C | 0.55
U51C U66A U67C | 0.3
U51C U66C U76C | 0.58
U51C U66C U80A | 0.61
U51C U67C C68G | 0.54
U51C U69C G73A | 0.69
U51C U74C U80C | 1.26
U51G A56G U58C | 0.17
U51G A56G U72A | 0.49
U51G A57C C71G C81A | 0.21
U51G A64G U66C U78C | 0.14
U51G A64U U74A | 0.42
U51G A65G U72C U80C | 0.6
U51G G73A U74C U78A | 1.32
U51G U54A G63A | 0.59
U51G U54A U72A | 0.94
G52A A56U U66C G70U | 0.26

Variant | self-cleavage
G52A A65G U78G | 0.47
G52A A65G U80C | 0.67
G52A U54A G55C | 1.12
G52A U67C U72A | 0.22
G52A U69A U78C | 0.78
G52C A56G U80A | 1.21
G52C A64G G70A | 0.49
G52C A64G U76A | 0.87
G52C C62U U67C C71A | 0.47
G52C U69C U80C | 0.76
G52U A56G U78C | 1.22
G52U A64G U74C | 1.13
G52U A64G U80A | 0.97
G52U G73A U76C | 1.29
G52U U54C U69G | 0.97
G52U U54G A65G U67C | 0.2
G52U U54G U78C | 1.06
G52U U60A U78C | 0.73
G52U U69A U72C C79U U80C | 0.3
G52U U72C G73A U78C | 1.24
G53A A65G U72C | 0.49
G53A C62A C71U | 0.47
G53A G63C C71A | 0.31
G53A U74C U78C U80C | 0.83

Variant | self-cleavage
G53A U76A A77G | 1.16
G53C A57G C68U | 0.87
G53U U54C U72C | 1.09
U54A A56G U66C | 0.12
U54A A56U A64G | 0.51
U54A A57G G63A U78C | 0.86
U54A A64G U69C | 0.65
U54A A65C C68A | 0.4
U54A C62A U67C U72A | 0.82
U54A C71A U78C | 0.32
U54A C71G C79A | 0.72
U54A G61A U67A C68A | 0.42
U54A G61C A65G | 0.23
U54A G63A U66C U76C | 0.4
U54A G63A U72C | 1.15
U54A U60C C71U U72C | 0.41
U54A U60C U67C | 0.64
U54A U60C U72C | 0.75
U54A U67C U69A U76C | 0.54
U54A U69C U78C | 1.17
U54A U74G A75U | 1.21
U54C A56G G63A C71U | 0.61
U54C A56G U58C U78C | 0.16
U54C A56G U67C | 0.28

Variant | self-cleavage
U54C A56G U69C | 0.23
U54C A56U C62U A65U C71U A77U | 0.06
U54C A56U U67C | 0.22
U54C A57C U74A | 0.44
U54C A57G U66C U67C U69A U76C | 0.14
U54C A64G A65G U72A | 0.45
U54C A64G A75C A77U | 1.15
U54C A64G A75U | 1.04
U54C A64G U72C | 0.52
U54C A64G U76C | 0.93
U54C A64G U80A | 1.14
U54C A64U U78C | 0.25
U54C A65G A77G | 0.35
U54C A65G U67C C81A | 0.23
U54C A75U C79G | 1.21
U54C C59A A65G U80A | 0.2
U54C C62U A77G | 0.56
U54C C62U U80C | 0.22
U54C C68U U74A | 0.98
U54C C71A U72C | 0.27
U54C G55A U80A | 1
U54C G61A U66C | 0.38
U54C G61A U67A | 0.24
U54C G63U U80A | 0.71

Variant | self-cleavage
U54C U58C U60C A65G U72C U78A | 0.34
U54C U58C U69A | 0.23
U54C U60A U69C | 0.25
U54C U60A U76A | 0.7
U54C U60C C68U U78A | 0.42
U54C U60C U67C | 0.23
U54C U60C U69A A75U | 0.41
U54C U60C U76C | 0.57
U54C U60G U72C | 0.33
U54C U66C C71A | 0.35
U54C U66C U78C | 0.21
U54C U66G A77G | 0.33
U54C U67A U69A U72C | 0.19
U54C U67C C81A | 0.25
U54C U69C G73A A77G | 1.07
U54C U69C U80C | 0.29
U54C U72A U74C | 1.16
U54C U72A U76C | 1.02
U54C U72G G73A | 1.24
U54C U76A U80C | 1.22
U54G A57G U66A | 0.19
U54G A64U U76G | 0.19
U54G U58C U76C | 0.24
